According to patent US12583836B2 (Anaxis Pharma Pty Ltd, priority 2020, dated 2026):

How the values were obtained:
[1] = test system: U937 human histiocytic leukemia cell line; test: Inhibition of TSQ induced necroptosis, 384 well plate format (CellTitre-Glo); conditions: Homo sapiens, U-937; U937 cells, TSQ cocktail (TNF, Smac mimetic, Q-VD-OPh), CelltiterGlo; read-out: Inhibition of TSQ-induced necroptosis (IC50 cell-based assay)
Summary of the method: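 Necroptosis was induced in U937 cells (20,000/well) by hTNF-Fc 100 ng/ml, Smac mimetic 500 nM and Q-VD-OPh 10 μM for 48 h at 37 °C. Compounds were run as a 10-point 1:3 series from 36 μM in 0.3% DMSO. Viability was read by CellTiter-Glo luminescence (DMSO = 100%, DMSO+TSQ = 0%), and IC50 was taken from a 4-parameter fit.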

MLKL (full length) = biological target: T1, MLKL (full length) (Homo sapiens, UniProt Q8NB16); test: KINOMEscan binding assay, MLKL; conditions: equilibrium dissociation constant, class symbols
T1 construct: purchased DiscoverX (KINOMEscan service); host or cells: E. coli BL21-derived (T7 phage) or HEK293
T1 sequence (Q8NB16 1-471): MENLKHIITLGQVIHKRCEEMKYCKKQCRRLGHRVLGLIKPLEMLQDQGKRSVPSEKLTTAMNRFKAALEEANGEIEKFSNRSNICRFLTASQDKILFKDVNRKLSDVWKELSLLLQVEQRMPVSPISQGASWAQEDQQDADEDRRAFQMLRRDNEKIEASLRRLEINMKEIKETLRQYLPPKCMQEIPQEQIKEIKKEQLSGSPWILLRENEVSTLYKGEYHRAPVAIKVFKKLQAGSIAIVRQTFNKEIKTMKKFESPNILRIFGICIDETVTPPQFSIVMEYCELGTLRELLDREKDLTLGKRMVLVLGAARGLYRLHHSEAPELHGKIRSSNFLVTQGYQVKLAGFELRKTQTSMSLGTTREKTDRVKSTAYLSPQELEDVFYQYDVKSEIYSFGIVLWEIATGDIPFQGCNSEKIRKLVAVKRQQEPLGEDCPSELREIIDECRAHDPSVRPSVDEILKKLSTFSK
Text: The Hill Slope was set to −1.

U937 cells = test: Counter screen: cell viability without the TSQ cocktail (CelltiterGlo); parameters: species or system human; conditions: Homo sapiens, U-937, cell viability by CelltiterGlo, read-out: Off-target effect (IC50 cell-based assay)
Method: Counter screen: In parallel, all compounds were tested for their ability to affect cell viability. The same U937 cells were treated with compound in DMSO without the TSQ cocktail. This counter screen enabled evaluation of off-target effects. In this case, cell viability was measured by CelltiterGlo.

RIP1 = biological target: T2, RIP1 (Homo sapiens, UniProt Q13546); test: KINOMEscan binding assay, RIP1; conditions: equilibrium dissociation constant, class symbols
T2 construct: purchased DiscoverX (KINOMEscan service); host or cells: E. coli BL21-derived (T7 phage) or HEK293
T2 sequence (Q13546 1-671): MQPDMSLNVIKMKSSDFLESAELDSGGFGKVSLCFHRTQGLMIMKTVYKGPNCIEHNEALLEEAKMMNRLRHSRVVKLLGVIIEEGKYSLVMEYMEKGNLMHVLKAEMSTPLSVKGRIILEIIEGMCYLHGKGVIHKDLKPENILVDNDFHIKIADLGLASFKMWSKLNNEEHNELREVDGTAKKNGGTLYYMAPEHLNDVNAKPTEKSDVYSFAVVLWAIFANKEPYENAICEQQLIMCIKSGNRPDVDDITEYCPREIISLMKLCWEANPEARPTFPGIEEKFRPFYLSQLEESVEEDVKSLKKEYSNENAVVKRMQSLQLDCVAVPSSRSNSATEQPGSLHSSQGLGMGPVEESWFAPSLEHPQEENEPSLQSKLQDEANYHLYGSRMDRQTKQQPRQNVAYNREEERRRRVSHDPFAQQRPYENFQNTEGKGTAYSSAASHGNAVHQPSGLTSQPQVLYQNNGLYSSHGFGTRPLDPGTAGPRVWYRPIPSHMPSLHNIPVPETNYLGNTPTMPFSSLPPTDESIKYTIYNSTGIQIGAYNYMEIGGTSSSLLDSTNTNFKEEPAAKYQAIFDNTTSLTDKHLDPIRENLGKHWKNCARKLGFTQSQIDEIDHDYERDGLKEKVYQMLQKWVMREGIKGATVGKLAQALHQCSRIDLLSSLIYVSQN

Structure (SMILES)	Kd (MLKL (full length)) [nM]	Kd (RIP1) [nM]	IC50 [1] [nM]	IC50 (U937 cells) [nM]
C[C@H](Oc1cc(-c2n[nH]c(Nc3cc(C45CC6CC(CC(C6)C4)C5)on3)c2C(N)=O)ccc1NS(=O)(=O)C(F)F)c1ccc(F)cc1 [Compound 304, (S)-5-((5-(adamantan-1-yl)isoxazol-3-yl)amino)-3-(4-((difluoromethyl)sulfonamido)-3-(1-(4-fluorophenyl)ethoxy)phenyl)-1H-pyrazole-4-carboxamide]	10 to 1000	> 30000	10 to 1000	1000 to 30000
CCS(=O)(=O)Nc1ccc(-c2n[nH]c(Nc3cccc(C(F)(F)F)n3)c2C(N)=O)cc1OCC1CCCCC1 [Compound 200]	10 to 1000	> 30000		
CN(C)CCS(=O)(=O)Nc1ccc(-c2n[nH]c(Nc3cccc(C(F)(F)F)n3)c2C(N)=O)cc1 [Compound 51, 3-(4-((2-(dimethylamino)ethyl)sulfonamido)phenyl)-5-((6-(trifluoromethyl)pyridin-2-yl)amino)-1H-pyrazole-4-carboxamide]	10 to 1000	> 30000		
CC(C)(C)S(=O)(=O)Nc1ccc(-c2n[nH]c(Nc3cnccn3)c2C(N)=O)cc1 [Compound 69, 3-(4-((1,1-dimethylethyl)sulfonamido)phenyl)-5-(pyrazin-2-ylamino)-1H-pyrazole-4-carboxamide]	10 to 1000	> 30000		
CCS(=O)(=O)Nc1ccc(-c2n[nH]c(Nc3ccccn3)c2C(N)=O)cc1OCC1CCCC1 [Compound 36, 3-(3-(cyclopentylmethoxy)-4-(ethylsulfonamido)phenyl)-5-(pyridin-2-ylamino)-1H-pyrazole-4-carboxamide]	10 to 1000	1000 to 30000		
NC(=O)c1c(-c2ccc(NS(=O)(=O)Cc3cccc(Cl)c3)cc2)n[nH]c1Nc1ccccn1 [Compound 129, 3-(4-(((3-chlorophenyl)methyl)sulfonamido)phenyl)-5-(pyridin-2-ylamino)-1H-pyrazole-4-carboxamide]	1000 to 30000	> 30000		
CCS(=O)(=O)Nc1ccc(-c2n[nH]c(Nc3cc(C)ncc3F)c2C(N)=O)cc1 [Compound 111, 3-(4-(ethylsulfonamido)phenyl)-5-((5-fluoro-2-methylpyridin-4-yl)amino)-1H-pyrazole-4-carboxamide]	10 to 1000	> 30000		
CCS(=O)(=O)Nc1ccc(-c2n[nH]c(Nc3cccc(OC)n3)c2C(N)=O)cc1 [Compound 107, 3-(4-(ethylsulfonamido)phenyl)-5-((6-methoxypyridin-2-yl)amino)-1H-pyrazole-4-carboxamide]	< 10	> 30000		
NC(=O)c1c(-c2ccc(NS(=O)(=O)Cc3ccc(C(F)(F)F)cc3)cc2)n[nH]c1Nc1cnccn1 [Compound 76, 5-[(pyrazin-2-yl)amino]-3-(4-{[4-(trifluoromethyl)phenyl]methanesulfonamido}phenyl)-1H-pyrazole-4-carboxamide]	10 to 1000	> 30000		
CCS(=O)(=O)Nc1ccc(-c2n[nH]c(Nc3cnccn3)c2C(N)=O)cc1OCC1CCCN(C)C1 (centres unmarked) [Compound 187, 3-(4-(ethylsulfonamido)-3-((1-methylpiperidin-3-yl)methoxy)phenyl)-5-(pyrazin-2-ylamino)-1H-pyrazole-4-carboxamide]	10 to 1000	> 30000		

The next lines start with results.

Kd (MLKL (full length)) [nM]	Kd (RIP1) [nM]	Structure (SMILES)	IC50 [1] [nM]	IC50 (U937 cells) [nM]
< 10		C[C@H](Oc1cc(-c2n[nH]c(Nc3cc(C4CC4)on3)c2C(N)=O)ccc1NS(=O)(=O)C(F)F)c1ccc(F)cc1 [Compound 310, (S)-5-((5-cyclopropylisoxazol-3-yl)amino)-3-(4-((difluoromethyl)sulfonamido)-3-(1-(4-fluorophenyl)ethoxy)phenyl)-1H-pyrazole-4-carboxamide]	10 to 1000	> 30000
< 10	> 30000	CCS(=O)(=O)Nc1ccc(-c2n[nH]c(Nc3cnc(C(C)C)cn3)c2C(N)=O)cc1OCc1ccc(F)cc1 [Compound 34, 3-(4-(ethylsulfonamido)-3-((4-fluorobenzyl)oxy)phenyl) 5-((5-isopropylpyrazin-2-yl)amino)-1H-pyrazole-4-carboxamide]	10 to 1000	> 30000
< 10		C[C@H](Oc1cc(-c2n[nH]c(Nc3cc(C4(C)CCOCC4)on3)c2C(N)=O)ccc1NS(=O)(=O)C(F)F)c1ccc(F)cc1 [Compound 301, (S)-3-(4-((difluoromethyl)sulfonamido)-3-(1-(4-fluorophenyl)ethoxy)phenyl)-5-((5-(4-methyltetrahydro-2H-pyran-4-yl)isoxazol-3-yl)amino)-1H-pyrazole-4-carboxamide]	10 to 1000	> 30000
< 10	> 30000	COCCOc1cc(Nc2[nH]nc(-c3ccc(NS(C)(=O)=O)cc3)c2C(N)=O)ccn1 [Compound 122, 5-((2-(2-methoxyethoxy)pyridin-4-yl)amino)-3-(4-(methylsulfonamido)phenyl)-1H-pyrazole-4-carboxamide]		
< 10	> 30000	CCS(=O)(=O)Nc1ccc(-c2n[nH]c(Nc3ccnc(C(F)(F)F)c3)c2C(N)=O)cc1 [Compound 104, 3-(4-(ethylsulfonamido)phenyl)-5-((2-(trifluoromethyl)pyridin-4-yl)amino)-1H-pyrazole-4-carboxamide]		
< 10	> 30000	CCS(=O)(=O)Nc1ccc(-c2n[nH]c(Nc3ccccn3)c2C(N)=O)cc1OCc1cccnc1 [Compound 31, 3-(4-(ethylsulfonamido)-3-(pyridin-3-ylmethoxy)phenyl)-5-(pyridin-2-ylamino)-1H-pyrazole-4-carboxamide]		
< 10	> 30000	CCS(=O)(=O)Nc1ccc(-c2n[nH]c(Nc3ccn(C)n3)c2C(N)=O)cc1 [Compound 91, 3-(4-(ethylsulfonamido)phenyl)-5-((1-methyl-1H-pyrazol-3-yl)amino)-1H-pyrazole-4-carboxamide]		
< 10	> 30000	NC(=O)c1c(-c2ccc(NS(=O)(=O)CC(F)(F)F)cc2)n[nH]c1Nc1cnccn1 [Compound 137, 5-(pyrazin-2-ylamino)-3-(4-((2,2,2-trifluoroethyl)sulfonamido)phenyl)-1H-pyrazole-4-carboxamide]		
< 10	> 30000	NC(=O)c1c(-c2ccc(NS(=O)(=O)C(F)F)c(OCc3ccc(F)cc3)c2)n[nH]c1Nc1cccc(C(F)(F)F)n1 [Compound 217]		
< 10	> 30000	CCS(=O)(=O)Nc1ccc(-c2n[nH]c(Nc3cccc(OC)n3)c2C(N)=O)cc1OCc1ccc(F)cc1 [Compound 11, 3-(4-(ethylsulfonamido)-3-((4-fluorobenzyl)oxy)phenyl) 5-((6-methoxypyridin-2-yl)amino)-1H-pyrazole-4 carboxamide]		
< 10	> 30000	CCS(=O)(=O)Nc1ccc(-c2n[nH]c(Nc3cncc(C(F)(F)F)n3)c2C(N)=O)cc1OCc1ccc(F)cc1 [Compound 17, 3-(4-(ethylsulfonamido)-3-((4-fluorobenzyl)oxy)phenyl) 5-((6-(trifluoromethyl)pyrazin-2 yl)amino)-1H-pyrazole-4 carboxamide]		
< 10		CC[C@@H](Oc1cc(-c2n[nH]c(Nc3cnccn3)c2C(N)=O)ccc1NS(=O)(=O)CC(F)(F)F)c1ccc(F)cc1 (single isomer, unassigned) [Compound 251]	1000 to 30000	> 30000
< 10	> 30000	CCS(=O)(=O)Nc1ccc(-c2n[nH]c(Nc3cnccn3)c2C(N)=O)cc1O[C@@H](C)c1ccccn1 [Compound 230, 3-{4-ethanesulfonamido-3-[(1S)-1-(pyridin-2-yl)ethoxy]phenyl}-5-[(pyrazin-2-yl)amino]-1H-pyrazole-4-carboxamide]		
